Measurements reported in patent US20140057977A1, “Induction of Arteriogenesis” (G. Pohl-Boskamp GmbH & Co. KG, priority 2012, published 2014).

System: collateral arteries
Assay: Coronary microvascular imaging with micro-CT: collateral diameters in the ROI

Row | Compound | collateral diameters compared to controls (in words) (5 DAYS RIP, listed as PBS and ASS) | Collateral diameters of ROI (5 DAYS RIP, listed as PBS+ASA) [μm] | Collateral diameters of ROI (5 DAYS RIP) [μm] | Collateral diameters of ROI (5 DAYS SHAM) [μm]
1 | CC(=O)Oc1ccccc1C(=O)O [ASA+PBS, acetyl salicylic acid] | significantly smaller | 102.5±8.0 | – | –
2 | O=[N+]([O-])OCC(CO[N+](=O)[O-])O[N+](=O)[O-] [NTG, nitroglycerin] | – | – | 158.4±9.2 | 86.8±9.0
